Over roughly 33,000 sequences, “E-score (-0.5 to 0.5)” has its median near -0.012; the highest 2% begin near 0.29. The list shows a part of the results.
The sequences below were run against T1, Ybr033w (UniProt P38073) (assay: PBM E-score (8-mer binding enrichment) (E-score (-0.5 to 0.5)); higher = stronger / more preferred TF binding; most listed sequences are background and not binding sites). Details: protein concentration: 200 nM; construct: GST-full length.
T1 sequence: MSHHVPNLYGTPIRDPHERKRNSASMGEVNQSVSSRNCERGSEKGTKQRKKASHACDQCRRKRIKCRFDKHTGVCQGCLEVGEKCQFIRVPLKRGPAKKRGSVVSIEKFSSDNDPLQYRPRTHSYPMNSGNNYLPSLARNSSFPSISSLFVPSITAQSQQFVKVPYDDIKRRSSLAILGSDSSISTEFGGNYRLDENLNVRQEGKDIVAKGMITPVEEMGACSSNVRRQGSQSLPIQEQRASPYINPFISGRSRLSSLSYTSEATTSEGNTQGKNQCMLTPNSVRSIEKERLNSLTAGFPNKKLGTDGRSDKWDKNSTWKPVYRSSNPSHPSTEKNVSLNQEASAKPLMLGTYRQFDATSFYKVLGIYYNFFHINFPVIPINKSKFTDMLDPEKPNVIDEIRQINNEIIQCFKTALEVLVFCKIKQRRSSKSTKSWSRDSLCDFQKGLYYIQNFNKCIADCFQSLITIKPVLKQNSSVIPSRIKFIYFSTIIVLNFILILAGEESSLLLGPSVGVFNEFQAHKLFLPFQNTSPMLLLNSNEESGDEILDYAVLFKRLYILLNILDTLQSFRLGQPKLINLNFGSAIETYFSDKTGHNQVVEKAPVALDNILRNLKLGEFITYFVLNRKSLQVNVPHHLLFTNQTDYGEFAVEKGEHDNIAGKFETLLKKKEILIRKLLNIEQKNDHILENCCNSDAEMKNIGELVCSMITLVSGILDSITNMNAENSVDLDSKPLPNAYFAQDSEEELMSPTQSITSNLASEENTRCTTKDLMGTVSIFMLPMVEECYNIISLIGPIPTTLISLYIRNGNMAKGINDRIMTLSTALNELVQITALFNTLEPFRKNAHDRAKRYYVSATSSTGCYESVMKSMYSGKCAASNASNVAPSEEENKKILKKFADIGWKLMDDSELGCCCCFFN
How it was run: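 E-scores (a modified Wilcoxon-Mann-Whitney statistic) were assigned by the Universal PBM Analysis Suite to every ungapped eight-base word pooled with its reverse complement. The input came from universal all-10-mer Agilent arrays made double-stranded by primer extension and probed with GST-tagged yeast transcription factors at about 100-200 nM. Fluorescent anti-GST detected bound protein, and masliner normalised the scans.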

Row | Sequence | PBM E-score
1 | CTGTGAAC | 0.027
2 | CGTTCGTC | -0.134
3 | CATCGTGA | -0.2
4 | ATAGTGGA | 0.0933
5 | GAGATGCC | -0.104
6 | ATCAATAC | 0.181
7 | GACAACGA | -0.083
8 | TAGGTCGA | -0.00582
9 | CCCTTATC | -0.0405
10 | AGAGCTCC | -0.29
11 | ACAAACGG | 0.108
12 | ATACAACA | 0.152
13 | GTAGGCTA | -0.102
14 | ATCGGCAG | -0.0561
15 | ACTCACTA | 0.2
16 | ATACAGAC | 0.147
17 | ATAGAGAC | 0.097
18 | GTAGATCA | 0.22
19 | GAGATAAC | -0.0832
20 | CGAGTAGC | -0.0807
21 | GTAAGTAA | 0.07
22 | TGAAGTAA | 0.0554

Row | Sequence | PBM E-score
23 | AAAAGATC | 0.253
24 | AGCGCCAC | -0.314
25 | ATCAGGAG | -0.0502
26 | GAGCTCCC | -0.228
27 | ACTTAACC | 0.122
28 | CGGCGACC | -0.324
29 | CTTATTCC | 0.207
30 | AGCTTCAC | -0.161
31 | TACCTGGA | 0.025
32 | AAGGGGAC | -0.17
33 | ACATGCGC | -0.0429
34 | AATAAATT | 0.314
35 | TGCTATAA | 0.0493
36 | ACGCGCTC | -0.0257
37 | CACCATGG | -0.191
38 | GTAATCTA | 0.207
39 | ATCTACAA | 0.125
40 | ATCAGGTA | 0.0728
41 | AGCCTAAA | 0.118
42 | CCCTGTCG | -0.23
43 | AAGTGGAC | -0.0328
44 | ATAGTGAG | -0.0204

Row | Sequence | PBM E-score
45 | CACATGCA | -0.133
46 | CCTCGATA | 0.0185
47 | GCTTCCTA | 0.0109
48 | AACAAACG | 0.183
49 | AGTCTGGA | 0.0222
50 | GCGGTCCC | -0.239
51 | TCTCTACA | 0.105
52 | ATGAAAGC | 0.163
53 | AGGCACGA | -0.0668
54 | TTAGGGAA | 0.0746
55 | CAGAGAAC | 0.0865
56 | CGGATTAC | -0.014
57 | CACGCCTA | -0.136
58 | CCTAGAGC | -0.179
59 | CGTTGGAG | -0.109
60 | GTTTCACA | 0.157
61 | GGCTTTCA | -0.0296
62 | GACTGCCA | -0.0509
63 | GCCGCCCA | -0.284
64 | ACGTGCCC | -0.118
65 | AATGAAGG | 0.146
66 | AGTCAAAG | -0.051

Row | Sequence | PBM E-score
67 | ACGCACAA | -0.0376
68 | ACAGTTTA | 0.126
69 | GGGGATAC | -0.269
70 | GAGCACCC | -0.296
71 | CAAGTCAC | -0.097
72 | CAGATTTC | 0.181
73 | GCGCACAC | -0.141
74 | CGCAACGC | -0.125
75 | ATTGACTC | 0.0792
76 | ATGTTCGA | 0.0468
77 | GTCAGGGA | -0.133
78 | TACGGATA | 0.23
79 | AGCATAAC | 0.0859
80 | GCTCGGTA | 0.104
81 | CGACTGGC | -0.0974
82 | ATACAAGC | 0.209
83 | CAGGGTGG | -0.234
84 | CTGTTGAC | -0.114
85 | ACATGTGA | -0.0699
86 | ACTTTATA | 0.154

Source: the supplement of paper PMC3334620
